Results taken from PubChem BioAssay AID1030 (National Center for Advancing Translational Sciences (NCATS), 2008).
Among all 220,000 compounds or so, about 16,000 (7.3%) were called active. The shares of active, inactive and inconclusive entries below differ from those in the screen. Calls come from the whole dose curve; as a rule, active = well fitted inhibition curve with a large enough effect (not every such curve was filed as active); inconclusive = small, poorly fitted or top-dose-only effect, or another doubt; inactive = no such curve, though single readings can be large or run the other way. Potencies of inconclusive entries are left out as doubtful fits.
Potency is the fitted concentration of half-maximal effect; tags give direction and shape of the fitted curve.

Each molecule was assayed against Aldehyde dehydrogenase 1A1 (Homo sapiens) (UniProt P00352) (assay: qHTS Assay for Inhibitors of Aldehyde Dehydrogenase 1 (ALDH1A1)). Details: Purified ALDH1A1, NADH fluorescence, propionaldehyde substrate; series mostly up to 75.3 µM.
Chain of UniProt P00352 (P00352 whole entry, looked up): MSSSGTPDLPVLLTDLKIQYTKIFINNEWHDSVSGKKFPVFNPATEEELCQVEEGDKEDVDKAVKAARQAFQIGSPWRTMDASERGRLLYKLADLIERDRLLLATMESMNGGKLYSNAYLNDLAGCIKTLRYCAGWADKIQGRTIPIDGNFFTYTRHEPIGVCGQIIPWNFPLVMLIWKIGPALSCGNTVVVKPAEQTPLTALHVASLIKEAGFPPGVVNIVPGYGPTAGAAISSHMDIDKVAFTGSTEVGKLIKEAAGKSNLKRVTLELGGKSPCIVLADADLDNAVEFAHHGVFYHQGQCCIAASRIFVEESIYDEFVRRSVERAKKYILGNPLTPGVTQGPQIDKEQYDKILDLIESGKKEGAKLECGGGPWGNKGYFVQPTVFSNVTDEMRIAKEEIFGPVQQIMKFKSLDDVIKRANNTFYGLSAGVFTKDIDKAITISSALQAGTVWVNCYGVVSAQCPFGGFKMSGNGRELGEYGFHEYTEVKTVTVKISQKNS
In the case of `CCOC(=O)c1ccc(NC(=O)CSc2nc3sc(C(=O)O)c(C)c3c(=O)[nH]2)cc1`, the Potency is reported as active: 14.1 µM.
For `Cc1ccc(-c2nn3nnnc3c3ccccc23)cc1`, the Potency was inconclusive [inhibitor, partial curve].
For `COc1ccc(CNc2ncncc2-c2ccccc2OC)c(OC)c1`, the Potency was inconclusive [inhibitor, partial curve].
For `N#Cc1nc(COc2ccccc2Cl)oc1NCc1ccco1`, the Potency was inconclusive [inhibitor, partial curve].
`C[C@@H]1NC(=O)[C@H](CCC(N)=O)NC(=O)c2cc([N+](=O)[O-])cc(I)c2NCC[C@@H](C(N)=O)NC1=O` was tested, and the Potency was “inactive”.
`O=C(O)c1cccc(N/N=C/c2ccc(F)c(F)c2)c1` was tested, and the Potency was inconclusive [inhibitor, single point].
For `CCC(=O)c1ccc(OC(C)C(=O)NC2(C#N)CCCCC2)cc1` (configuration not stated), the Potency was “inactive”.
With `N/C(=N\OC(=O)Oc1ccccc1)c1ccc([N+](=O)[O-])cc1` the Potency was “inactive”.
For `O=C(CCn1cccc1)NCc1ccc2c(c1)OCO2`, the Potency was “inactive”.
For `O=c1c(CCc2ccccc2)nc2cnc(N3CCNCC3)nc2n1C1CC1`, the Potency was inconclusive [inhibitor, partial curve].
In the case of `Cc1cccc2cc(C#N)c(NCCNS(=O)(=O)c3ccc4c(c3)OCCO4)nc12`, the Potency is reported as inconclusive [inhibitor, single point].
For `O=C(c1cc(Cl)ccc1[N+](=O)[O-])N1CCc2ccccc2C1`, the Potency was “inactive”.
For `O=C(CC1Nc2ccccc2NC1=O)Nc1ccc2c(c1)OCO2` (configuration not stated), the Potency was inconclusive [inhibitor, single point].
With `Cc1ccccc1S(=O)(=O)Cc1ccc(C(=O)NC(C)c2ccc3c(c2)OCCO3)o1` (configuration not stated) the Potency was active: 14.1 µM.
`Cc1ccc2nc(/C(C#N)=C/c3ccc(-c4cccc([N+](=O)[O-])c4)o3)[nH]c2c1` was tested, and the Potency was inconclusive [inhibitor, partial curve].
`Cc1cccc(CCNS(=O)(=O)c2ccc(S(=O)(=O)NC3CCCC3)cc2)c1` was tested, and the Potency was “inactive”.
In the case of `O=C1c2cccc3cccc(c23)C(=O)N1CC1CCN(S(=O)(=O)c2ccc(F)cc2)CC1`, the Potency is reported as inconclusive [inhibitor, partial curve].
`C=CCn1c(N)c(C(=O)NC2CCCCC2)sc1=S` was tested, and the Potency was inconclusive [inhibitor, partial curve].
`CC(C)(C)C(=O)NC(=S)Nc1cccc(C(=O)O)c1` was tested, and the Potency was inconclusive [inhibitor, single point].
`C=CCn1c(C)cc(-c2csc(NCC)n2)c1C` was tested, and the Potency was inconclusive [inhibitor, partial curve].
`Cc1cc(C2=NNC(=NC3CC3)SC2)c(C)n1-c1ccccc1` was tested, and the Potency was active: 3.55 µM.
`CN(C)/C=N/c1nc(-c2ccc3c(c2)OCO3)cs1` was tested, and the Potency was inconclusive [inhibitor, single point].
With `CC1CCCN(C(=O)CSc2nnc(-c3cccnc3)n2C2CCCCC2)C1` (configuration not stated) the Potency was “inactive”.
With `O=[N+]([O-])c1ccc(N2CCCC2)cc1N1CCCC1` the Potency was active: 14.1 µM.
For `Cc1ccc(S(=O)(=O)N(C)C)cc1NC(=S)NC(=O)C12CC3CC(CC(C3)C1)C2`, the Potency was inconclusive [inhibitor, partial curve].
In the case of `O=c1[nH]c(C2CCCN(S(=O)(=O)c3ccccc3)C2)nc2c1nnn2Cc1ccccc1` (configuration not stated), the Potency is reported as active: 10 µM.
With `O=C(NC(=S)Nc1ccccc1N1CCOCC1)c1sc2ccccc2c1Cl` the Potency was inconclusive [inhibitor, partial curve].
For `CCOc1nc(NC2CCCCC2)nc(NC(C)(C)C)n1`, the Potency was “inactive”.
For `COc1ccc(C(=O)CSc2ccc(-c3ccc(C)cc3)nn2)cc1`, the Potency was inconclusive [inhibitor, partial curve].
`CCN(CC)S(=O)(=O)c1ccc(C)c(NC(=O)COc2ccc(Cl)cc2Br)c1` was tested, and the Potency was “inactive”.
For `CC(=O)NC(C)c1nc2ccccc2n1CC(=O)N1C(C)CCCC1C` (configuration not stated), the Potency was inconclusive [inhibitor, single point].
With `CCOc1ccc(/C(O)=C2/C(=O)C(=O)N(CCOCCO)C2c2cccnc2)cc1` (configuration not stated) the Potency was “inactive”.
With `O=C(O)CC1S/C(=N/N=C/c2ccc(-c3ccccc3[N+](=O)[O-])o2)NC1=O` (configuration not stated) the Potency was active: 8.91 µM.
In the case of `COC(=O)C1=C(C)Nc2ncnn2C1c1ccc(OC(=O)c2ccccc2)cc1` (configuration not stated), the Potency is reported as inconclusive [inhibitor, single point].
In the case of `CC/C=C\C/C=C\C/C=C\C/C=C\C/C=C\C/C=C\CCC(=O)NC(C)C(=O)O` (configuration not stated), the Potency is reported as inconclusive [inhibitor, single point].
In the case of `c1ccc(CC2CCN(c3nc4ccccc4n4cnnc34)CC2)cc1`, the Potency is reported as inconclusive [inhibitor, single point].
For `CCN(C(=O)CSc1ncnc2sc(C)c(C)c12)C1CCS(=O)(=O)C1` (configuration not stated), the Potency was inconclusive [inhibitor, single point].
`Cc1ccc(-c2csc3ncnc(-n4cnc5ccccc54)c23)cc1` was tested, and the Potency was inconclusive [inhibitor, single point].
With `CCN1/C(=C/C(C)=C/c2sc3ccccc3[n+]2CC)Sc2ccccc21` the Potency was inconclusive [inhibitor, partial curve].
With `CC1CCCC(C)N1C(=O)CSc1nnc(-c2c[nH]c3ccccc23)o1` (configuration not stated) the Potency was active: 10 µM.
For `COc1ccc(CCNC(=O)CSc2nnnn2-c2ccc(OC)c(OC)c2)cc1OC`, the Potency was “inactive”.
`Cc1ccc(CNc2ccc3c(c2)OCO3)cc1` was tested, and the Potency was inconclusive [inhibitor, full curve, poor fit].
For `N#CC/C(N)=N/NC(=O)CCCNc1ncc(C(F)(F)F)cc1Cl`, the Potency was inconclusive [inhibitor, single point].
`O=C(Nc1ccc2c(c1)nc1n2CCOC1)c1ccco1` was tested, and the Potency was “inactive”.
For `COC(=O)n1c(=O)oc2cc(S(=O)(=O)N3CCCCC3)ccc21`, the Potency was “inactive”.
In the case of `CNC(=S)N/N=C(\C)c1ccc(Cl)s1`, the Potency is reported as inconclusive [inhibitor, single point].
In the case of `CC(C)C(c1nnnn1Cc1cccs1)N1CCN(c2ccccc2)CC1` (configuration not stated), the Potency is reported as inconclusive [inhibitor, single point].
For `C=CCNc1sc(C(=O)c2ccc(C)cc2)c(N)c1C#N`, the Potency was “inactive”.
For `CCCOc1ccc(-c2nc(C#N)c(N3CCN(CC)CC3)o2)cc1`, the Potency was inconclusive [inhibitor, partial curve].
With `CC(=O)c1sc(NCCOc2ccc(C)cc2)nc1C` the Potency was inconclusive [inhibitor, single point].
`CCN(C(=O)COC(=O)/C=C/c1nc2ccccc2s1)C1CCS(=O)(=O)C1` (configuration not stated) was tested, and the Potency was “inactive”.
In the case of `O=C(Nc1nccs1)C1(S(=O)(=O)c2ccc(Cl)cc2)CC1`, the Potency is reported as active: 11.2 µM.
`Cc1sc2nc(C(C)C)nc(SCC(=O)NCc3ccco3)c2c1C` was tested, and the Potency was inconclusive [inhibitor, single point].
With `O=C(CSc1nc(-c2ccc(F)cc2)cs1)N1CCOCC1` the Potency was inconclusive [inhibitor, partial curve].
For `Cn1c(Cl)c(/C=N/OC(=O)C(C)(C)C)c2ccccc21`, the Potency was inconclusive [inhibitor, partial curve].
In the case of `CC(=O)N(CC(=O)O)c1ccccc1C(=O)O`, the Potency is reported as “inactive”.
`CCN1C(=O)/C(=C/c2nc3ccccc3c(=O)[nH]2)c2ccccc21` was tested, and the Potency was inconclusive [inhibitor, full curve].
With `Cc1ccn2cc(-c3ccc4c(c3)NC(=O)CO4)nc2c1` the Potency was “inactive”.
For `COc1ccccc1N(CC(=O)Nc1ccc(C(F)(F)F)cc1)S(C)(=O)=O`, the Potency was “inactive”.
With `Cn1ncc([N+](=O)[O-])c1C(=O)N/N=C/c1cccc([N+](=O)[O-])c1` the Potency was “inactive”.
With `Cc1cc(C(=O)CSc2nncs2)c(C)n1Cc1ccco1` the Potency was inconclusive [inhibitor, single point].
`COc1ccc(Br)cc1/C=N/Nc1ccc(Cl)c(C(=O)O)c1` was tested, and the Potency was inconclusive [inhibitor, single point].
In the case of `C[C@H]([C@H](C)N1CC(=O)NC(=O)C1)N1CC(=O)NC(=O)C1`, the Potency is reported as inconclusive [inhibitor, partial curve].
For `CCOc1cc(/C=N/Nc2nncc(-c3ccccc3)n2)ccc1O`, the Potency was inconclusive [inhibitor, partial curve].
For `COc1cccc(Cn2c(=O)c(-c3cn(C)c4ccccc34)nc3cnc(N4CCOCC4)nc32)c1`, the Potency was inconclusive [inhibitor, partial curve].
In the case of `Cc1cc(/C=N/NC(=O)c2cccc(F)c2)c(C)n1-c1ccccc1`, the Potency is reported as inconclusive [inhibitor, single point].
With `Cc1c(NC(=O)COC(=O)c2ccc(F)c(S(=O)(=O)N3CCOCC3)c2)c(=O)n(-c2ccccc2)n1C` the Potency was “inactive”.
For `COC(=O)c1ccc(NS(=O)(=O)c2ccccc2)o1`, the Potency was “inactive”.
`COC(=O)[C@@]1(Cc2ccc(F)cc2)[C@H]2c3cc(C(=O)N4CCCC4)n(Cc4ccc(C(F)(F)F)nc4)c3C[C@H]2CN1C(=O)c1ccccc1` was tested, and the Potency was “inactive”.
For `c1ccc(Nc2nc3ccccc3o2)cc1`, the Potency was inconclusive [inhibitor, partial curve].
With `O=C(Nc1ccc(N2C(=O)C3C4C=CC(C4)C3C2=O)cc1)Nc1cccnc1` (configuration not stated) the Potency was inconclusive [inhibitor, single point].
`Cc1cc2nc(C)c(Cc3ccccc3)c(=O)n2[nH]1` was tested, and the Potency was inconclusive [inhibitor, single point].
